Laboratory results: PubChem BioAssay AID504339 (National Center for Advancing Translational Sciences (NCATS), 2011)
The campaign covered roughly 390,000 compounds. About 17,000 (4.4%) were called active. The shares of active, inactive and inconclusive entries below differ from those in the screen. Calls come from the whole dose curve; as a rule, active = well fitted inhibition curve with a large enough effect; inconclusive = small, poorly fitted or top-dose-only effect; inactive = no such curve, though single readings can be large or run the other way. Potencies beside an inconclusive call are fits to weak or partial responses and may not hold up.

Biological target: Lysine-specific demethylase 4A (Homo sapiens) (UniProt O75164)
Assay: qHTS Assay for Inhibitors of JMJD2A-Tudor Domain; note: nearly all actives have a fitted effect of over 50% in size
Details: AlphaScreen JMJD2A-Tudor / H3K4me3 peptide binding; series mostly up to 114 µM
Potency is the fitted concentration of half-maximal effect; tags give direction and shape of the fitted curve.

Sequence of UniProt O75164 (O75164 whole entry, looked up, the tested form may be a part): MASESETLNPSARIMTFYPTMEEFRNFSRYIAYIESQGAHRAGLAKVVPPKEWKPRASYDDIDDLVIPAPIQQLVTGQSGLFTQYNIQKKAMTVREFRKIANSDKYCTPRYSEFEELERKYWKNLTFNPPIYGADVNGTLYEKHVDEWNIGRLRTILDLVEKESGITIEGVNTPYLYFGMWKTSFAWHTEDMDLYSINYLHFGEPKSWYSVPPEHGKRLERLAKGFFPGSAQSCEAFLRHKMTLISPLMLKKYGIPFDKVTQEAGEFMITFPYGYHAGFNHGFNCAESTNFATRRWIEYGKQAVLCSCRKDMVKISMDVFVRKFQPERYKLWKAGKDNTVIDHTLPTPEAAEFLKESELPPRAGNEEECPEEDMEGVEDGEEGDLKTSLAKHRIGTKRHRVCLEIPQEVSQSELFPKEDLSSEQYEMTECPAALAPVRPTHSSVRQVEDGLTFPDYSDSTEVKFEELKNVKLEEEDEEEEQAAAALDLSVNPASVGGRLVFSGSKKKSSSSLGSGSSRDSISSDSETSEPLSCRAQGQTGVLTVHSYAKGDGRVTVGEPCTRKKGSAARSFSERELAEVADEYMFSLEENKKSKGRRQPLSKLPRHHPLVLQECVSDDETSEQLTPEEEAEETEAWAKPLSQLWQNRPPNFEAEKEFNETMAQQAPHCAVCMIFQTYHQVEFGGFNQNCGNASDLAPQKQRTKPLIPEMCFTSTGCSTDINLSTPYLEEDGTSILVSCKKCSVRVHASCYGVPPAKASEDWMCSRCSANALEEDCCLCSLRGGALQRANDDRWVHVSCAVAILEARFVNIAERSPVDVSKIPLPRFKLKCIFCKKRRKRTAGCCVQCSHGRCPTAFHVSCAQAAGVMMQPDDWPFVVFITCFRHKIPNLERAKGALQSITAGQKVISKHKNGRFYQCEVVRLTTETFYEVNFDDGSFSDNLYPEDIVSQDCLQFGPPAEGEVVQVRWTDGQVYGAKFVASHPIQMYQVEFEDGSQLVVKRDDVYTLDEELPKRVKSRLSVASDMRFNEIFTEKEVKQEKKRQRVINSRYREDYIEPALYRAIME

| Structure (SMILES) | Potency |
| --- | --- |
| Cc1c(N2C(=O)C(=O)/C(=C(/O)c3ccc(Cl)cc3)C2c2ccccc2)c(=O)n(-c2ccccc2)n1C (stereo not drawn) | inconclusive: 70.8 µM [inhibitor, single point] |
| CC1(C)Cc2c(c(-c3ccco3)nc3sc4c(NCCN5CCOCC5)ncnc4c23)CO1 | inactive |
| Cc1cc2oc(=O)cc(-c3cc4ccccc4o3)c2cc1O | inactive |
| O=C(c1ccccc1)c1ccc(Oc2ccc([N+](=O)[O-])cc2[N+](=O)[O-])cc1 | active: 7.08 µM |
| CC(C)Oc1ccc(/C=C(\NC(=O)/C=C/c2ccco2)C(=O)NCCc2nc3ccccc3[nH]2)cc1 | inconclusive: 63.1 µM [inhibitor, single point] |
| O=C(CSc1nnc(-c2cnccn2)n1Cc1ccco1)c1ccc2ccccc2c1 | inconclusive: 50.1 µM [inhibitor, partial curve] |
| CCOC(=O)c1[nH]n(-c2ccc(Cl)cc2)c(=O)c1C | active: 70.8 µM |
| Cc1ccc(Cn2c(C(CO)Nc3nc(-c4ccc(Cl)c([N+](=O)[O-])c4)cs3)nc3ccccc32)cc1 (stereo not drawn) | inconclusive: 56.2 µM [inhibitor, partial curve] |
| O=S(=O)([O-])CCC[N+]1(CC#Cc2ccccc2)CCCCC1 | inconclusive: 11.2 µM [inhibitor, partial curve, poor fit] |
| O=C(NNC(=S)NC1CCCCC1)c1cccc(S(=O)(=O)Nc2ccccc2Cl)c1 | inconclusive: 50.1 µM [inhibitor, partial curve] |
| COC(=O)c1ccc(N2C(=O)CC(SCCN)C2=O)cc1 (stereo not drawn) | inconclusive: 35.5 µM [inhibitor, single point] |
| COc1ccc(NS(=O)(=O)c2ccc3oc(Nc4ccc5c(c4)OCCO5)nc3c2)cc1 | inconclusive: 44.7 µM [inhibitor, partial curve] |
| Cc1ccc(CNS(=O)(=O)c2ccc(C(F)(F)F)cc2)n1C | inactive |
| Cn1cccc1-c1nc2ccc(NC(=O)c3ccco3)cc2[nH]1 | inconclusive: 79.4 µM [inhibitor, partial curve] |
| OCCC1CN(Cc2cnc(-c3ccccc3)s2)CCN1C1CCCC1 (stereo not drawn) | inconclusive: 35.5 µM [inhibitor, partial curve] |
| O=C(c1ccccc1)[C@@H]1[C@@H]2C(=O)N(c3ccc(F)cc3)C(=O)[C@@H]2C2CCCN21 (stereo partly drawn) | inconclusive: 56.2 µM [inhibitor, partial curve] |
| CCOCCCNC(=O)CN1C(=O)NC(Cc2c[nH]c3ccccc23)C1=O (stereo not drawn) | inactive |
| CCOc1ccc(CN(C)c2nc(-c3cccnc3)nc3ccccc23)cc1OC | inconclusive: 39.8 µM [inhibitor, partial curve] |
